In the GPR68 mutational scans of Howard et al. (2025) one finds cAMP reporter score and surface expression score data, which are given here for 30 variants.

The least precise scores are not listed. Not listed are two conditions whose scores span a narrow range. In variant names, del marks residues removed and ins residues inserted between the two positions. For part of these data: The data file names ogerin without a concentration.

To fix the notation:
B1: GPR68, Q15743 (parent)
chain: MGNITADNSSMSCTIDHTIHQTLAPVVYVTVLVVGFPANCLSLYFGYLQIKARNELGVYLCNLTVADLFYICSLPFWLQYVLQHDNWSHGDLSCQVCGILLYENIYISVGFLCCISVDRYLAVAHPFRFHQFRTLKAAVGVSVVIWAKELLTSIYFLMHEEVIEDENQHRVCFEHYPIQAWQRAINYYRFLVGFLFPICLLLASYQGILRAVRRSHGTQKSRKDQIQRLVLSTVVIFLACFLPYHVLLLVRSVWEASCDFAKGVFNAYHFSLLLTSFNCVADPVLYCFVSETTHRDLARLRGACLAFLTCSRTGRAREAYPLGAPEASGKSGAQGEEPELLTKLHPAFQTPNSPGSGGFPTGRLA

Variants of B1 are the subject of data set [1]. Put plainly: cAMP reporter score (Enrich2 score, wild type = 0); higher = more signal; HEK293T, FACS bins.
The variants in data set [2] derive from B1. In words: surface expression score (Enrich2 score, wild type = 0); higher = more signal; HEK293T, FACS bins.

T342K: the cAMP reporter score in data set [1] (pH 5.5) is 0.539; in data set [1] (pH 6) it was 0.26; in data set [1] (pH 6, modulator: ogerin), 0.589; in data set [1] (pH 6.5, modulator: ogerin) it was 1.64. The surface expression score in data set [2] amounted to 1.56.
The corresponding values for T342A are 0.88, 0.203, 1.36, -0.032 and 0.97.
For T342L, the cAMP reporter score in data set [1] (pH 5.5) was 1.37; in data set [1] (pH 6) it was -0.065; in data set [1] (pH 6, modulator: ogerin), 1.04; in data set [1] (pH 6.5, modulator: ogerin) it was 1.37. Further, in data set [2], the surface expression score is 0.521.
In the case of T342M, the cAMP reporter score in data set [1] (pH 5.5) was determined as 1.13; in data set [1] (pH 6), 0.103; in data set [1] (pH 6, modulator: ogerin), 1.34; in data set [1] (pH 6.5, modulator: ogerin) it was 0.501. The surface expression score in data set [2] came to 2.07.
The matching figures for T342E: 0.455, 0.495, 0.043, -0.059 and 0.255.
For T342F, the cAMP reporter score in data set [1] (pH 5.5) was 0.042; in data set [1] (pH 6, modulator: ogerin) it was 0.263; in data set [1] (pH 6.5, modulator: ogerin) it was 0.327. In addition, in data set [2], the surface expression score is -0.597.
As to T342I, the cAMP reporter score in data set [1] (pH 5.5) was -0.113; in data set [1] (pH 6), 0.066; in data set [1] (pH 6, modulator: ogerin) it was -0.122; in data set [1] (pH 6.5, modulator: ogerin), -0.493. Moreover, in data set [2], the surface expression score was -0.181.
The matching figures for T342D: -0.62, 0.882, 0.64, 1.79 and 0.929.
The matching figures for T342C: 0.319, 1.44, 0.642, 0.018 and 0.977.
The corresponding values for T342H are 0.341, 0.485, 1.18, 1.23 and 1.77.
On to T342G, for which the cAMP reporter score in data set [1] (pH 5.5) stood at 0.059; in data set [1] (pH 6), 1.02; in data set [1] (pH 6, modulator: ogerin) it was 0.24; in data set [1] (pH 6.5, modulator: ogerin) it was 0.929. In data set [2], the surface expression score was found to be 1.43.
Regarding A333_G335del, the cAMP reporter score is 0.531 in data set [1] (pH 5.5); 1.33 in data set [1] (pH 6); 0.322 in data set [1] (pH 6, modulator: ogerin); -0.056 in data set [1] (pH 6.5, modulator: ogerin). The surface expression score in data set [2] stood at 0.626.
Consider E339_L341del, for which the cAMP reporter score in data set [1] (pH 5.5) is 1.23; in data set [1] (pH 6), 1.35; in data set [1] (pH 6, modulator: ogerin), 1.9; in data set [1] (pH 6.5, modulator: ogerin), 1.02. The surface expression score in data set [2] was 1.34.
For A333del, the cAMP reporter score in data set [1] (pH 5.5) came to 0.869; in data set [1] (pH 6), 0.31; in data set [1] (pH 6, modulator: ogerin), 0.493; in data set [1] (pH 6.5, modulator: ogerin) it was 0.145. In addition, the surface expression score in data set [2] worked out at 0.259.
Consider E339_L340insG, for which the cAMP reporter score in data set [1] (pH 5.5) was 0.845; in data set [1] (pH 6), -1.29; in data set [1] (pH 6, modulator: ogerin), 0.047; in data set [1] (pH 6.5, modulator: ogerin), 1.03. The surface expression score in data set [2] is 0.334.
Turning to L341_K343del, the cAMP reporter score in data set [1] (pH 5.5) is 0.774; in data set [1] (pH 6), -0.001; in data set [1] (pH 6, modulator: ogerin) it was 0.704; in data set [1] (pH 6.5, modulator: ogerin), 1.71. Moreover, the surface expression score in data set [2] was determined as 0.745.
As to A333_Q334insGS, the cAMP reporter score in data set [1] (pH 5.5) was found to be 0.476; in data set [1] (pH 6), 0.246; in data set [1] (pH 6, modulator: ogerin), 0.621; in data set [1] (pH 6.5, modulator: ogerin) it was 0.239. For the same variant, the surface expression score in data set [2] was determined as 0.702.
Take G335_E336insGSG: the cAMP reporter score in data set [1] (pH 5.5) was 0.393; in data set [1] (pH 6), -0.272; in data set [1] (pH 6, modulator: ogerin), 0.461; in data set [1] (pH 6.5, modulator: ogerin) it was 0.404. Also, the surface expression score in data set [2] was found to be 0.651.
The corresponding values for P338_E339insG are 0.19, -0.681, 0.551, 0.676 and 0.463.
In the case of A333S, the cAMP reporter score in data set [1] (pH 5.5) is 1.45; in data set [1] (pH 6) it was -0.215; in data set [1] (pH 6, modulator: ogerin), 1.36; in data set [1] (pH 6.5, modulator: ogerin), 0.791. Besides, the surface expression score in data set [2] came out at 1.3.
The matching figures for A333R: 2.15, 2.25, 2.61, 1.22 and 1.02.
The corresponding values for A333T are -0.14, 0.135, -0.025, -0.13 and -0.012.
Regarding A333W, the cAMP reporter score is -0.05 in data set [1] (pH 5.5); -0.043 in data set [1] (pH 6); 0.06 in data set [1] (pH 6, modulator: ogerin); -0.099 in data set [1] (pH 6.5, modulator: ogerin). For the same variant, the surface expression score in data set [2] is -0.295.
Consider A333Q, for which the cAMP reporter score stood at 1.13 in data set [1] (pH 5.5); 0.649 in data set [1] (pH 6); 0.853 in data set [1] (pH 6, modulator: ogerin); 0.316 in data set [1] (pH 6.5, modulator: ogerin). In data set [2], the surface expression score is 0.289.
The matching figures for A333V: -0.248, 1.01, 0.084, 0.317 and -0.5.
The corresponding values for A333Y are 0.803, 0.144, 0.733, -0.187 and 0.359.
As to E336_E337del, the cAMP reporter score worked out at 1.58 in data set [1] (pH 5.5); 0.483 in data set [1] (pH 6, modulator: ogerin); 1.69 in data set [1] (pH 6.5, modulator: ogerin). Besides, in data set [2], the surface expression score was -0.323.
On to E337M, for which the cAMP reporter score in data set [1] (pH 5.5) was -0.555; in data set [1] (pH 6) it was -0.438; in data set [1] (pH 6, modulator: ogerin) it was 0.665. Further, the surface expression score in data set [2] was found to be 0.686.
As to E337N, the cAMP reporter score in data set [1] (pH 5.5) is 0.54; in data set [1] (pH 6), -0.187; in data set [1] (pH 6, modulator: ogerin), 0.89; in data set [1] (pH 6.5, modulator: ogerin) it was 0.919. The surface expression score in data set [2] turned out to be 0.392.
The corresponding values for E337H are -0.16, 0.296, -0.258, -0.638 and -0.288.
